# Laboratory results: publication PMC2867792
# Amino acid sequences for entries named in this document (tags omitted). A change or cut given only in a name is not applied to a line headed by its entry. Chains listed by the source or under a name are the forms on record and can include a tag or linker. Residues count along the entry.
# UniProt Q9BRX2: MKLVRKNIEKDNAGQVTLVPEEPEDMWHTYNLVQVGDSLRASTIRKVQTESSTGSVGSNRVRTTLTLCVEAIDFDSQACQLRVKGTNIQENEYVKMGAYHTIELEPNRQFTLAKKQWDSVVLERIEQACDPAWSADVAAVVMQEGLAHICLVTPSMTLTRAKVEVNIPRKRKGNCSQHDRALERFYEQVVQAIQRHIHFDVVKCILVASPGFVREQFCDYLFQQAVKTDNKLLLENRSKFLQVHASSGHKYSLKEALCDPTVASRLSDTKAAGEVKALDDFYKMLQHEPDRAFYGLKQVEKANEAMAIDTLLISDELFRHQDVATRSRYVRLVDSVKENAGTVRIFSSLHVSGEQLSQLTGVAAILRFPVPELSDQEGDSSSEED
# GST-PELO fusion protein GST-1 (full-length human Pelo, 2-385 aa): residues 2-385 of Q9BRX2
# GST-PELO fusion protein GST-3 (2-371 aa): residues 2-371 of Q9BRX2
# GST-PELO fusion protein GST-4 (2-268 aa): residues 2-268 of Q9BRX2
# GST-PELO fusion protein GST-2 (136-385 aa): residues 136-385 of Q9BRX2
# UniProt O75821: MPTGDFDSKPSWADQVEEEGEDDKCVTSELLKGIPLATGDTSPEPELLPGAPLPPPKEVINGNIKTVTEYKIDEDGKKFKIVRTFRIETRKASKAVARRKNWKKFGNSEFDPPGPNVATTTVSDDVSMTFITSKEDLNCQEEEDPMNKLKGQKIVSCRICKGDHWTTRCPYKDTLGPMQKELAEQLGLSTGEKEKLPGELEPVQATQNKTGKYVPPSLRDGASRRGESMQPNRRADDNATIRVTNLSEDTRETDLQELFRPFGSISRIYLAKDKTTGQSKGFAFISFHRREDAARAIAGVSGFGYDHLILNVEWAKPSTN
# HAX1 (amino acid residues 176-279), two-hybrid prey clone (O00165, residues 176-279): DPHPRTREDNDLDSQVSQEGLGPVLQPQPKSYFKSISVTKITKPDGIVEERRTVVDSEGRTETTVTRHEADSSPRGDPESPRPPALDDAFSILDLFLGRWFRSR
# HAX1-GFPN (HAX1 178-279 aa fused to the N-terminal half of EGFP) (O00165, residues 178-279): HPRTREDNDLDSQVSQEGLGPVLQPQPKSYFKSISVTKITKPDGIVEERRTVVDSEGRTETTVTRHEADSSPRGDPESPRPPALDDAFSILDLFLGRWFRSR
# No constants are given. Whether binding was seen depends on the method and setting. For some of these results: In cells and extracts the contact can be indirect. Some entries that bind do so weakly or less than the wild type. For some of these results: Tags and fused reporters may be left off the sequences shown.
# B1: Myc-SRPX (24 kDa, cDNA fragment from the prey vector) (domain or fragment, UniProt P78539 265-464)
# chain: LNAPENGYMKCSSDGDNYGATCEFSCIGGYELQGSPARVCQSNLAWSGTEPTCAAMNVNVGVRTAAALLDQFYEKRRLLIVSTPTARNLLYRLQLGMLQQAQCGLDLRHITVVELVGVFPTLIGRIGAKIMPPALALQLRLLLRIPLYSFSMVLVDKHGMDKERYVSLVMPVALFNLIDTFPLRKEEMVLQAEMSQTCNT
# B2: SRPX-GFPN (SRPX 265-464 aa fused to the N-terminal half of EGFP) (domain or fragment, UniProt P78539 265-464)
# chain: B1 chain
# B3: SRPX (amino acid residues 265-464), two-hybrid prey clone (domain or fragment, UniProt P78539 265-464)
# chain: B1 chain
# B4: MOS-GFPN (sequence of the MOS gene fused to the N-terminal half of EGFP) (protein, UniProt P00540 1-346)
# chain: MPSPLALRPYLRSEFSPSVDARPCSSPSELPAKLLLGATLPRAPRLPRRLAWCSIDWEQVCLLQRLGAGGFGSVYKATYRGVPVAIKQVNKCTKNRLASRRSFWAELNVARLRHDNIVRVVAASTRTPAGSNSLGTIIMEFGGNVTLHQVIYGAAGHPEGDAGEPHCRTGGQLSLGKCLKYSLDVVNGLLFLHSQSIVHLDLKPANILISEQDVCKISDFGCSEKLEDLLCFQTPSYPLGGTYTHRAPELLKGEGVTPKADIYSFAITLWQMTTKQAPYSGERQHILYAVVAYDLRPSLSAAVFEDSLPGQRLGDVIQRCWRPSAAQRPSARLLLVDLTSLKAELG
# How the values were obtained:
# [1] = target: PELO (full length, yeast two-hybrid bait, pGBK7-PELO) (human) (UniProt Q9BRX2); test: two-hybrid; pGBK7-PELO bait against a human prostate cDNA library in pACT2, yeast AH109; selection without histidine and adenine with 5 mM 3-amino-triazole, then beta-galactosidase
# [2] = target: PELO-GFPC (full-length human Pelo, 1-385 aa, fused to the C-terminal half of EGFP) (human) (UniProt Q9BRX2); test: split reporter; BiFC with EGFP halves (1-157, 158-239) in transiently co-transfected HeLa cells, 24 h at 37°C, 2 h at 30°C, fixed
# [3] = target: HA-tagged PELO (PELO-HA) (human) (UniProt Q9BRX2); test: co-IP; lysates of HeLa cells co-transfected with PELO-HA and a Myc-tagged construct; precipitation with anti-Myc (blot anti-HA) or with anti-HA or anti-PELO (blot anti-Myc); control IgG
# [4] = target: GST-PELO fusion protein GST-3 (2-371 aa) (human) (UniProt Q9BRX2); test: pull-down; GST-PELO fusion proteins or GST alone (100 ug) on glutathione (GST-bind) resin, incubated with lysates of HeLa cells transfected with Myc-tagged constructs, 2 h at 4°C; blot with anti-Myc; only the target purified
# [5] = target: GST-PELO fusion protein GST-1 (full-length human Pelo, 2-385 aa) (human) (UniProt Q9BRX2); test: as above
# [6] = target: GST-PELO fusion protein GST-4 (2-268 aa) (human) (UniProt Q9BRX2); test: as above
# [7] = target: GST-PELO fusion protein GST-2 (136-385 aa) (human) (UniProt Q9BRX2); test: as above
Molecule,binding [1],binding [2],binding [3],binding [4],binding [5],binding [6],binding [7]
"EIF3G (amino acid residues 1-320), two-hybrid prey clone (from UniProt O75821 1-320) (domain or fragment)",binds,–,–,–,–,–,–
EIF3G-GFPN (EIF3G 1-320 aa fused to the N-terminal half of EGFP) (from UniProt O75821 1-320) (domain or fragment),–,binds,–,–,–,–,–
HAX1-GFPN (HAX1 178-279 aa fused to the N-terminal half of EGFP) (from UniProt O00165 178-279) (domain or fragment),–,binds,–,–,–,–,–
"Myc-EIF3G (38 kDa, cDNA fragment from the prey vector) (from UniProt O75821 1-320) (domain or fragment)",–,–,binds,binds,binds,no binding,binds
"Myc-HAX1 (12 kDa, cDNA fragment from the prey vector) (from UniProt O00165 176-279) (domain or fragment)",–,–,binds,no binding,binds,no binding,binds
"HAX1 (amino acid residues 176-279), two-hybrid prey clone (from UniProt O00165 176-279) (domain or fragment)",binds,–,–,–,–,–,–
B1,–,–,binds,binds,binds,no binding,binds
B2,–,binds,–,–,–,–,–
B3,binds,–,–,–,–,–,–
B4,–,no binding,–,–,–,–,–
